Whole data set: some 110,000 compounds, median “z-score” near -0.1, cut for the highest 2% near 2. Some of the results follow.

This assay has as its target Metabotropic glutamate receptor 8 (Rattus norvegicus) (UniProt P70579). Put plainly: mGluR8 Gi/Go-coupled signaling modulation – cell-based, rat, thallium flux, HTS, primary screen (AID 488969). The settings on record: HEK293 rat mGluR8, GIRK (G protein-gated inwardly rectifying potassium channel) thallium flux, FluoZin2; at 10 µM; stronger effect = higher value; submaximal glutamate (EC20) added with thallium.
Chain of UniProt P70579 (P70579 whole entry, looked up): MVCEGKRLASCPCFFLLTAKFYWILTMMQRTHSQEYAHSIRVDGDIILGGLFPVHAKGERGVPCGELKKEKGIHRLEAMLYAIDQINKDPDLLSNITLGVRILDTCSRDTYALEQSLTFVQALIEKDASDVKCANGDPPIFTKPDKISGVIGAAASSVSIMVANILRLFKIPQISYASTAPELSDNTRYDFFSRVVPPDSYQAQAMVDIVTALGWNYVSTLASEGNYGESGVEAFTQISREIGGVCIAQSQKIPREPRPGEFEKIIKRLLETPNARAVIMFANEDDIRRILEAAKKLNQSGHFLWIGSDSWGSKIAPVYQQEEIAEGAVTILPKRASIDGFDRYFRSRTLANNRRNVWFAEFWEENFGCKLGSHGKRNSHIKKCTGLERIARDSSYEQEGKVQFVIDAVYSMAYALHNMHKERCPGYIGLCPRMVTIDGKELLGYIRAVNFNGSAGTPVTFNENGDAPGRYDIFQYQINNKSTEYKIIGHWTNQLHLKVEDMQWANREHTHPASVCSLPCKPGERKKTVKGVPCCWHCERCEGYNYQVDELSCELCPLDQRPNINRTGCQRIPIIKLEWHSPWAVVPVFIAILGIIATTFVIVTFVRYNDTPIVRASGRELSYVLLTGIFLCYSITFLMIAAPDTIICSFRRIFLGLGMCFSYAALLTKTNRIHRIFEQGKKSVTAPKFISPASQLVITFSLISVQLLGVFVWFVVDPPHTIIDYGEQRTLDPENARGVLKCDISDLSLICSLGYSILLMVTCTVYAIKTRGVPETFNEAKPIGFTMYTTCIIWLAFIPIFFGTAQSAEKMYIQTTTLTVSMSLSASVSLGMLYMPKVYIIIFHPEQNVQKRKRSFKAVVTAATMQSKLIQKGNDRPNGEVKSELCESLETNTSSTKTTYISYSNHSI
In turn, `O=C(Cc1ccccc1)NC(NCCc1ccccc1)C(Cl)(Cl)Cl` (stereo not given) displayed a z-score of -0.058.
The value for `CCOC(=O)c1c(C)nc2ccc(C)cn12` was -0.282; that for `COc1cc(NC(C)CCCN)c2ncccc2c1Oc1ccccc1` (stereo not given) was 0.817.
Under `N#C/C(=C/c1ccc(C(=O)O)cc1)C(=O)NCc1ccccc1` stands -0.123; under `Cn1c(=O)c2c(ncn2CCCNC2=CC(C)(C)CC(=O)C2)n(C)c1=O`, 0.279; under `O=C(NN=C1CCCCCC1)c1ccc(Br)o1`, 0.0417.
Molecule `O=C(NC1=NCCS1)c1ccc2c(c1)C(=O)N(Cc1ccco1)C2=O` had a z-score of 0.0114.
Under `CCOC(=O)C1=C(C)Nc2ncnn2C1c1ccc2c(c1)OCO2` (stereo not given) stands -0.217.
`CCCn1nnc(NC(=O)c2ccc(F)cc2)n1` registered a z-score of -0.08.
For the molecule `COc1ccccc1NC(=O)CN1CCN(CC(=O)Nc2ccc3c(c2)OCCO3)CC1`, the z-score is -1.33.
The value for `Cc1cc2[nH]c(=S)[nH]c2cc1C` was 0.151; that for `CCC(=O)NC(=S)Nc1ccc(NC(=O)c2ccccc2[N+](=O)[O-])cc1` was -0.232; that for `COc1ccc(CCNC(=O)CCN2C(=O)C3CC=CCC3C2=O)cc1OC` (stereo not given) was -0.988.
`N#C/C(=C\c1ccc(F)cc1)c1nc(-c2ccco2)cs1` had a z-score of -0.0562.
Take `C/C(=N\NC(=O)Cc1cccc2ccccc12)c1ccncc1`: the z-score is -0.275.
As to `Cc1cc(Cl)ccc1NC(=S)NCc1ccccc1`, the z-score came to 0.195.
Take `O=C(O)Cn1ncc2c1-c1ccoc1CC2`: the z-score was 0.0592.
The value for `N#C/C(=C/c1ccc(N2CCCCCC2)o1)c1ccc(Cl)cc1` was -0.433.
Under `Cc1ccc(NS(=O)(=O)c2ccc(NC(=O)c3ccc(-c4ccccc4)cc3)cc2)c(C)c1` stands -0.2; under `Cn1c(SCc2nc3ccccc3[nH]2)nnc1-c1cccnc1`, -0.278.
For the molecule `COc1ccc(N2CCN(C(=O)c3ccc(NS(=O)(=O)c4ccc(F)cc4)cc3)CC2)cc1`, the z-score was -0.641.
In turn, `O=C(O)CC(C(=O)O)N1C(=O)/C(=C/c2ccc(-c3nc4ccccc4s3)o2)SC1=S` (stereo not given) yielded a z-score of 1.97.
With `CCCNC(=O)Cn1c2ccccc2c2nc(=O)cc(C)n21`, the z-score was -1.69.
Under `CCN(CC)S(=O)(=O)c1cc([N+](=O)[O-])ccc1N=Nc1c(O)[nH]c2ccccc12` stands -0.035.
Turning to `CCc1cc(=O)oc2cc(OCc3nn[nH]n3)ccc12`, the z-score is -0.0454.
Consider `CCOC(=O)C1=C(C)NC(=O)C1CC(=O)O` (stereo not given), for which the z-score was -0.156.
With `Nc1nc(SCC(=O)NCC2CCCO2)n[nH]1` (stereo not given), the z-score was determined as 0.767.
The molecule `Cc1ccc(C)c(N(C(=O)CCC(=O)Nc2cc(C)on2)C(C(=O)NC2CCCC2)c2ccco2)c1` (stereo not given) showed a z-score of -0.454.
Under `COC(=O)C1=CN(C(C)C)C=C(C(=O)OC)C1c1cc2c(cc1Br)OCO2` stands -0.0368; under `CC1CC(C)(C)Nc2ccc(OC(=O)c3ccco3)cc21` (stereo not given), 2.2.
Under `CN1CCN(c2ccc([N+](=O)[O-])cc2C(=O)c2ccc(Br)cc2)CC1` stands -0.228; under `Cc1ccc(NC(=O)c2cccc(OC(F)F)c2)c(OC(F)F)c1`, -0.238; under `CCOc1cc(NC(=S)NCCCN2CCOCC2)c(OCC)cc1NC(=O)C(C)C`, 0.0126.
Regarding `Cc1cccc(NC(=O)CCN2C(=O)C3C4C=CC(C4)C3C2=O)n1` (stereo not given), the z-score is -0.0103.
`COc1ccc(NC(=O)Nc2cc(C)ccc2OC(F)F)c(OC)c1` showed a z-score of -0.567.
The value for `O=C(NCc1ccco1)c1ccccc1NC(=O)C1CC(=O)N(c2ccc(Cl)cc2)C1` (stereo not given) was -2.01; that for `N#CCCn1ncn(-c2ccccc2)c1=S` was -0.0781; that for `Cc1ccc2oc(-c3cccc(NC(=O)/C=C/c4cccc([N+](=O)[O-])c4)c3C)nc2c1` was 0.028.
On to `COc1cc(OC)c(S(=O)(=O)NCc2ccco2)cc1S(=O)(=O)NCc1ccco1`, for which the z-score turned out to be 0.395.
Under `O=C(Nc1c(-c2ccccc2)nc2ccccn12)c1ccco1` stands 0.152; under `COCC(=O)Nc1nnc(COc2ccc(Cl)cc2)s1`, 0.279.
Under `CC(=O)N1CN(C2CCS(=O)(=O)C2)Cc2c1sc1c2CCCC1` (stereo not given) stands -0.439.
The value for `Nn1c(SCC(=O)NCc2ccc3c(c2)OCO3)nnc1C1CC1` was 0.394; that for `CCOc1ccc(N2C(=O)CN=C2Nc2ccccc2Cl)cc1` was -0.893.
In turn, `COc1ccc(CNC(=O)C(C#N)c2nc3ccccc3nc2N2CCN(C)CC2)cc1` (stereo not given) came in with a z-score of 0.201.
With `N#CCCN(Cc1cccnc1)C(=O)Nc1ccc(Cl)c(Cl)c1`, the z-score came out at 0.126.
With `COc1cccc(CNc2cc(CSc3ccc(Cl)cc3)nc(C)n2)c1`, the z-score was 0.736.
Under `Clc1cccc(CN2CCC(Cc3ccccc3)CC2)c1` stands 0.188.
The value for `O=c1c(CN2CCN(c3cccc(Cl)c3)CC2)coc2c(Cl)cc(Cl)cc12` was 1.05.
`O=C(OCC(=O)c1ccc[nH]1)c1ccc(S(=O)(=O)N2CCCCCC2)cc1` yielded a z-score of 0.146.
`Cn1c(/C=N/NC(=O)c2ccccc2)nc2ccccc21` showed a z-score of 0.298.
The value for `CC1(C(=O)NC2CCCC2)CCC(=O)N1Cc1ccccc1Cl` (stereo not given) was -0.0897.
On to `CCN(CC)C(=O)CSc1nc(O)cc(=O)n1-c1ccccc1OC`, for which the z-score came to 0.0527.
Under `CS(=O)(=O)N1CCC(C(=O)Nc2ccc(OCc3ccccc3)cc2)CC1` stands -0.0531; under `O=C(Nc1ccc(-c2nnc(-c3ccccc3)o2)cc1)c1ccc(Br)o1`, 0.643; under `CCC1(CC)NC(=O)N(CC(=O)NCc2ccc3c(c2)OCO3)C1=O`, -0.0887.
Turning to `NNC(=O)CNC(c1ccccc1)c1cc(Br)ccc1NC(=O)c1ccccc1Br` (stereo not given), the z-score was -0.312.
`O=C(Nc1ccccc1)c1cc2c(=O)c3ccccc3oc2nc1C(F)(F)F` showed a z-score of -0.171.
The value for `NS(=O)(=O)c1ccc(N/C=C\C(=O)c2ccc3ccccc3c2)cc1` was 0.982; that for `CCn1c(-c2ccccc2Cl)nn(CC(=O)Nc2ccccc2OC)c1=S` was -0.438.
The value for `Fc1c(F)c(C(F)(F)F)c(F)c(F)c1N1CCN(c2ccc3nnc(C(F)(F)F)n3n2)CC1` was -0.195; that for `CC(=O)Nc1ccc(OCC(O)Cn2cnc3ccccc32)cc1` (stereo not given) was -0.279.
Under `Cn1cccc1C(=O)OCC(=O)Nc1ccc2c(c1)CCC2` stands 1.51; under `O=C(NC1CCN(C(=O)Nc2ccccc2)CC1)C1CCCCC1`, -0.671; under `Cc1ccc2c(CC(=O)Nc3c(C)n(C)n(-c4ccccc4)c3=O)coc2c1`, -1.07.
`C=CCOc1ccc(CNn2c(C)n[nH]c2=S)cc1OC`: the z-score came out at 0.17.
Turning to `O=C1C(Cl)=C(Nc2ccccc2O)C(=O)N1CCc1ccccc1`, the z-score is -0.245.
Under `CC(C)c1cc(C(N)=O)c(NC(=O)C2CCC2)s1` stands -0.311.
The value for `Cc1ccc(S(=O)(=O)N(C)c2ccc(OCC(=O)Nc3nc4c(ccc5ccccc54)s3)cc2)cc1` was -0.0297; that for `O=C(CCCOc1ccccc1)N1CCN(S(=O)(=O)c2cccs2)CC1` was 0.0616.
Turning to `O=C(NCCCn1ccnc1)Nc1cccc(Cl)c1`, the z-score is 0.583.
Under `CCn1c(/C=C/c2c(C)[nH]c3ccccc23)nc2ccccc2c1=O` stands -1.05; under `COc1ccc2c(CCNC(=O)CN3C(=O)c4ccccc4C3=O)c[nH]c2c1`, 0.0377.
Under `S=C(NCc1ccccn1)Nc1ccc(Cl)cc1` stands 1.42; under `CC(NC(=O)c1cc2ccccc2o1)c1cccs1` (stereo not given), 0.289.
Under `CCOC(=O)c1cnc2ccc(OCC)cc2c1NCc1ccccc1OC` stands -0.179; under `O=C(Nc1nc2ccccc2[nH]1)c1ccc(F)cc1`, 0.524; under `Cc1c(C(=O)N2CCN(C)CC2)oc2c1C(=O)CC(C)(C)C2`, -0.169.
Molecule `O=S(=O)(c1cccs1)N1CN(CC2CCCO2)c2nc3ccccc3nc21` (stereo not given) gave a z-score of 0.822.
In turn, `C=C(C)c1cccc(C(C)(C)NC(=O)N2CCCC(C(N)=O)C2)c1` (stereo not given) had a z-score of -0.257.
Under `O=c1cc(CSc2nnc(COc3ccc(Cl)cc3)o2)c2ccccc2[nH]1` stands -0.0764; under `CC(C)COC(=O)C1[C@H]2C(=O)N(Cc3cccs3)C[C@]23C=C[C@H]1O3` (stereo not given in full), 0.13; under `CCC(=O)Nc1ccc(/C(C)=N/NC(=O)c2c(-c3ccccc3Cl)noc2C)cc1`, 0.0303.
In turn, `CS(=O)(=O)N1CCC(C(=O)Nc2ccc3c(c2)OCO3)CC1` registered a z-score of -0.646.
The value for `Cc1ccccc1OCc1nnc(SCC(=O)N2CCc3ccccc32)n1C` was -0.183; that for `Cn1sc(NC(=O)c2ccccc2Cl)nc1=O` was 0.19.
`O=C(CSc1nc2scc(-c3ccco3)c2c(=O)n1-c1ccccc1)NCC1CCCO1` (stereo not given) displayed a z-score of -1.16.
Molecule `O=C(Nc1ccccc1C(F)(F)F)N1CCCCCC1` returned a z-score of -0.254.
`Cc1ccc(-c2ccc(C3C(C#N)=C(N)Oc4n[nH]c(C)c43)o2)cc1` (stereo not given) showed a z-score of 0.0977.
The value for `CC(=O)Nc1ccc(-c2nnc(SCC(=O)NCc3ccco3)n2C)cc1` was 0.141; that for `CCOc1ccc(NS(=O)(=O)c2ccc(OCC(=O)N3CCCC3)cc2)cc1` was -0.177; that for `O=C(COC(=O)CC12CC3CC(CC(C3)C1)C2)Nc1ncc(Cl)cc1Cl` was 0.372.
Under `COC(=O)Cn1ncc2c3ccccc3n(Cc3ccccc3)c2c1=O` stands -0.163.
For `COCCN(C(=O)Nc1ccccc1)C(C)c1cccnc1` (stereo not given), the z-score was -0.368.
`CC1(C)Cc2c(oc3ncn4ncnc4c23)CO1`: the z-score was -0.344.
`CC(=O)N/C(=C\c1ccc(F)cc1)C(=O)N(C)C` registered a z-score of -0.0961.
Under `O=C(Nc1nc(-c2ccccc2Cl)cs1)c1cccnc1` stands -0.0423; under `O=C(c1ccc2snnc2c1)N1CCCCC1`, 0.443; under `COc1ccc(/C=C(/C#N)C(=O)Nc2cc(C)ccc2C)cc1C(=O)O`, -0.524.
`Cc1ccc(C(=O)O)cc1NC(=S)NC(=O)c1ccc([N+](=O)[O-])cc1Cl` returned a z-score of -0.348.
Under `Cc1onc(-c2ccccc2)c1C(=O)NNC(=S)NC(=O)c1ccc(F)cc1` stands 0.724; under `CC(C)CN(C(=O)COC(=O)Cn1cnc2ccccc2c1=O)C1CCS(=O)(=O)C1` (stereo not given), -0.415; under `CCc1cccc(C)c1NC(=O)CNCc1ccccc1`, -0.195.
The value for `Cc1ccc(F)cc1NC(=O)Cc1nn(C)c(=O)c2ccccc12` was -0.0938; that for `COc1ccc(CCNC(=O)C2CCN(S(=O)(=O)c3ccc(Cl)cc3)CC2)cc1OC` was -0.192.
Consider `O=C(Nc1nnc(SCc2ccccc2)s1)c1cccc([N+](=O)[O-])c1`, for which the z-score stood at 0.0193.
The value for `CSCCC(NC(=O)c1ccc([N+](=O)[O-])cc1Cl)C(=O)OCC(=O)NC1CCCC(C)C1C` (stereo not given) was -0.358; that for `COC(=O)c1ccc(-n2c(C)cc(C(=O)COC(=O)CC3Sc4ccccc4NC3=O)c2C)cc1` (stereo not given) was -0.277.
Turning to `CCOC(=O)N1CCN(c2cc3nccnc3cc2F)CC1`, the z-score is -0.142.
The molecule `COC(=O)CN(C(=S)Nc1ccc(F)cc1)C1CC(=O)N(c2ccccc2)C1=O` (stereo not given) gave a z-score of 0.011.
